Experimental data: article PMC4336329 (PLoS ONE, 2015)
Hit rate of the full screen: of about 310,000 compounds, about 2,200 (0.71%) showed an effect of 50% or more. The effect is printed as a negative number. The list shows a part of the results.

These molecules were tested against human ether-à-go-go-related gene (hERG) potassium channel (human, UniProt Q12809) (assay: primary screen, population patch clamp on CHO cells stably expressing hERG).
Sequence of human ether-à-go-go-related gene (hERG) potassium channel (Q12809 whole entry, looked up): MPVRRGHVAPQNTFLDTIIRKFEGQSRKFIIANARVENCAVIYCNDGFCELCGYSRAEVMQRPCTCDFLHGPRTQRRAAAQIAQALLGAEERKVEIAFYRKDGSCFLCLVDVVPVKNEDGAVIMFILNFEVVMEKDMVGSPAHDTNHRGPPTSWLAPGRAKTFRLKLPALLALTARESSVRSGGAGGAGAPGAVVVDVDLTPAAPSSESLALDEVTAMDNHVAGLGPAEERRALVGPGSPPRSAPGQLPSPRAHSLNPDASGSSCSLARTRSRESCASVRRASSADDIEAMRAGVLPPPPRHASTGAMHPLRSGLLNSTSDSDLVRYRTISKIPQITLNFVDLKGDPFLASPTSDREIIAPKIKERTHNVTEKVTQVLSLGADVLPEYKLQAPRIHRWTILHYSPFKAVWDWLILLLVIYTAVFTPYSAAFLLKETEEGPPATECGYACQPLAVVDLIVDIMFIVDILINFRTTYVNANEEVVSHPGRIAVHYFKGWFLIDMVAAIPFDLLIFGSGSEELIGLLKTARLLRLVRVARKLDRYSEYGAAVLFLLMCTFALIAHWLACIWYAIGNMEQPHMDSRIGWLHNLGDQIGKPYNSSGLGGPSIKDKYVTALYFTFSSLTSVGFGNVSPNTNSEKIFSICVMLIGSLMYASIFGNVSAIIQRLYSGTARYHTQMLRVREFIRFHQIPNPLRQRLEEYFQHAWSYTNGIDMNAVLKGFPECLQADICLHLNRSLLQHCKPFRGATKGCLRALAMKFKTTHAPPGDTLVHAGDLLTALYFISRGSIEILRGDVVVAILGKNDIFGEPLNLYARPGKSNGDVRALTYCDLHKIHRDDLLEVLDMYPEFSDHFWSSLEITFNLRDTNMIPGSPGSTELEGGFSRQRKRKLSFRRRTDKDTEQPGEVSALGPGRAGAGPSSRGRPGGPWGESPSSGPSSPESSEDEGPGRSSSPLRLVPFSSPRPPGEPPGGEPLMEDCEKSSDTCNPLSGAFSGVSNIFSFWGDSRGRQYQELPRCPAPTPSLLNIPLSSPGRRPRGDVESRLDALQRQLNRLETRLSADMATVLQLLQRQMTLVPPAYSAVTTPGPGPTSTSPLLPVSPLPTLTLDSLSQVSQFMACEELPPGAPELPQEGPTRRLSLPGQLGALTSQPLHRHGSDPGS

SMILES	hERG current change (%, negative = inhibition) at 1uM [%]
CC(C)(C)CN1C(=O)C(=O)NC[C@H]1Cc1cccc2ccccc12	14.6
COc1cc(C(=S)N2CCCC2)cc(OC)c1OC	13.4
N=c1n(-c2ccccc2)c(O)cc(=O)n1-c1ccccc1	2.48
O=C(Nc1ccccc1C(=O)NCc1ccco1)c1ccccc1	6.85
Cc1ccc(NC(=O)COC(=O)C2CC2(Cl)Cl)cc1C (stereo not shown)	14.2
COc1cc(/C=N/Nc2cc(C)nc(NS(=O)(=O)c3ccccc3)n2)ccc1O	4.68
Cc1ccc(C(=O)CCC(=O)OCC(=O)NNC(=O)c2ccccc2Cl)cc1	9.44
O=C(Nc1nccs1)c1cn(-c2ccccc2)nc1-c1ccncc1	7.59
O=C1CCCN1c1ccc(N2CCCC2=O)cc1	15.2
O=C(Nc1c2c(nn1-c1cccc(Cl)c1)CS(=O)(=O)C2)c1ccco1	3.63
O=C(Nc1cccc(C(F)(F)F)c1)C1CCCO1 (stereo not shown)	15.6
CN(C)C(CNC(=O)c1cccc(S(=O)(=O)N(C)C)c1)c1ccccc1 (stereo not shown)	-0.964
O=C(NS(=O)(=O)c1ccccc1)c1ccccc1F	-0.685
O=C1CCCCN1CCC(=O)N1CCCC(Nc2ccccc2)C1 (stereo not shown)	13.9
CC12CN(C(=O)c3ccc(Cl)cc3)C3(C#N)CC1CCC23C (stereo not shown)	-2.14
O=C(Nc1ccc(Cn2cccn2)cc1)c1ccc(COc2cccc(Br)c2)cc1	17.4
O=C(c1ccccc1F)N1CCN(c2ccc([N+](=O)[O-])c3ncccc23)CC1	-38.7
CC(C)CC(=O)NC(=S)Nc1nc(-c2cccc3ccccc23)cs1	7.63
O[C@@H]([C@H](O)[C@H](O)CBr)[C@H](O)CBr	15
Cc1oc2cc(O)ccc2c(=O)c1Oc1ccccc1	-3.8
CSc1ccccc1NC(=O)c1ccccc1	-0.631
CCCOc1ccc(C(C)=O)cc1CSc1nc(O)cc(=O)[nH]1	9.83

SMILES	hERG current change (%, negative = inhibition) at 1uM [%]
O=c1[nH]c2ccc(Cl)cc2c(=O)n1Cc1ccco1	17.4
CC(C)(/C=N/O)/[N+]([O-])=C/c1ccccc1C(F)(F)F	10.8
Cc1ccc(S(=O)(=O)N2CCOCC2)cc1C(=O)Nc1ccccc1N1CCOCC1	13.7
CN(C)CCCN1C(=O)c2oc3ccc(F)cc3c(=O)c2C1c1cccnc1 (stereo not shown)	8.54
CC(C)N1C(=O)S/C(=C/c2cccnc2)C1=O	12.1
O=C(COc1ccccc1)Nc1ccc(Cl)cc1Cl	13.3
Cc1nn(C(C)C(=O)Nc2ccc(Cl)cn2)c(C)c1[N+](=O)[O-] (stereo not shown)	2.84
Cc1ccc(NC(=O)C2CC(=O)NC(N3CCc4ccccc43)=N2)cc1 (stereo not shown)	10.6
CCC(CC)C(=O)c1c[nH]c(C(=O)NCc2ccncc2)c1	10
Cc1cc(NN)nc2ccc(Cl)cc12	5.75
NC(=S)N/N=C\c1c2ccccc2cc2ccccc12	9.15
CN1C(=O)/C(=C/c2cc(C(C)(C)C)c(O)c(C(C)(C)C)c2)NC1=S	8.32
Cc1ccc(NC(=O)CSc2nnc(-c3ccco3)c(-c3ccco3)n2)cc1	-8.37
Cl.O=C(c1cc(S(=O)(=O)Nc2ccccc2F)c(Cl)cc1Cl)N1CCN(CCO)CC1	9.93
Cc1nc2ccccn2c1C(=O)NCc1ccc2c(c1)OCO2	4.6
CCCCNc1c(N)n(CC(C)C)c(=O)[nH]c1=O	-3.75
O=C(N/N=C/c1ccncc1)C1C2CCCCCCC21 (stereo not shown)	9.69
O=C1c2ccccc2C(Nc2ccc(S(=O)(=O)N3CCCCC3)cc2)N1c1ccccn1 (stereo not shown)	5.21
COc1ccccc1-c1ccc(SCC(=O)NCCc2ccccc2)nn1	-0.013
CCCn1c(=S)[nH]c2cc(C(=O)N(CCO)Cc3ccccc3)ccc2c1=O	15.5
O=C(Cn1cc(C(F)(F)F)cc(Cl)c1=O)Nc1cccc(S(=O)(=O)N2CCCCC2)c1	15.8
COc1ccccc1CNS(=O)(=O)c1c(C)noc1C	13.4

SMILES	hERG current change (%, negative = inhibition) at 1uM [%]
Cc1cc(C)c2c(CN3CCOCC3)cc(=O)oc2c1	6.07
C/C(=N\NC(=S)NCc1ccccc1)c1ccc(Cl)cc1	2.24
Nc1ncnc(Nc2cccc(F)c2)n1	6.16
COCCCN(C(=O)Cc1csc(-c2cccc(Cl)c2)n1)c1c(N)n(Cc2ccccc2)c(=O)[nH]c1=O	8.1
Cc1ccccc1N(C(=O)c1csnn1)C(C(=O)NC1CCCC1)c1ccncc1 (stereo not shown)	10.7
CCc1nnc(NC(=O)[C@@H](NC(=O)c2cc(OC)cc(OC)c2)C(C)C)s1	17
Cc1ccc(C(=O)N2CCN(c3ncccn3)CC2)c(C)c1	14.7
Cc1ccsc1C(=O)N1CCCC(CCC(=O)NCc2ccc(F)c(F)c2)C1 (stereo not shown)	1.22
Cc1ccc(-n2c(C)cc(/C([O-])=C(/C(=S)Nc3ccc(F)c(Cl)c3)[n+]3ccccc3)c2C)cc1	16.4
COCCN(C(=S)Nc1ccc(Cl)cc1OC)C1CCN(C(C)=O)CC1	1.97
Cc1ccc(N2C(=O)c3ccc(C(=O)N4CCN(Cc5ccccc5)CC4)cc3C2=O)cc1	4.4
O=C(CC(c1ccccc1)c1ccccc1)NCc1cccnc1	3.99
CC(C)n1cc(/C=C2/SC(=O)N(CC(=O)Nc3ccc4c(c3)OCO4)C2=O)c2ccccc21	2.03
COc1ccccc1C(=O)C1CCCN(C(=O)CCc2ccccn2)C1 (stereo not shown)	-3.64
O=C(c1cc([N+](=O)[O-])ccc1N1CCCCC1)N1CCc2ccccc21	8.63
COCCn1c(SCC(=O)Nc2ccc(F)cc2)nc2c(oc3ccccc32)c1=O	1.63
COc1ccc(NC(=O)Nc2c(C)noc2-c2ccccc2)cc1	15.3
CC(=O)N1N=C(c2ccco2)CC1c1cc2cc(C)ccc2nc1Cl (stereo not shown)	6.38
NC(=O)CC(NC(=O)c1ccccc1)c1ccc(NCc2ccc(F)c(F)c2)c([N+](=O)[O-])c1 (stereo not shown)	13.1
Cc1nc2cc(C(=O)NCc3ccc4c(c3)OCO4)ccc2n1-c1ccc(Br)cc1	-2.13
COC(=O)c1ccc(NC(=O)C(=O)N2CCN(C(=S)Nc3cccc(C)c3C)CC2)cc1	10.4
Cc1c(NC(=O)Nc2ccccc2)c(=O)n(-c2ccccc2)n1C	6.6

SMILES	hERG current change (%, negative = inhibition) at 1uM [%]
C=CCC(NCc1ccccc1)c1ccco1 (stereo not shown)	6.67
O=C1CC(NC(=O)C(F)(F)F)c2cc3c(cc21)OCO3 (stereo not shown)	8.85
CCc1cc(=O)oc2c3c(cc(OCC(=O)NC4CC4)c12)OC(C)(C)CC3	-8.42
O=C(CSc1ccc(-c2ccccn2)nn1)Nc1ccc(F)c(F)c1	-11.2
O=C(CCCc1ccccc1)Nc1nnc(C(F)(F)F)s1	-2.47
O=C(c1ccc(=O)n(Cc2ccc(Cl)c(Cl)c2)c1)N1CCOCC1	0.148
CCN(Cc1cccs1)C(=O)CN1C(=O)NC(c2ccccc2)(c2ccccc2)C1=O	-3.02
CCC(=O)NS(=O)(=O)c1cccnc1Nc1ccccc1Cl	11.3
CCOc1ccc2nc(N3CCCC(C(=O)NCCCN4C(C)CCCC4C)C3)sc2c1 (stereo not shown)	-13.6
CCOC(=O)c1cnc2nc(SCc3ccccc3Cl)[nH]n2c1=O	12.9
COc1ccc(-c2csc(NC(=O)CSc3nc4ccccc4c(=O)[nH]3)n2)cc1	12.1
Cc1csc(SCC(=O)Nc2cc(S(=O)(=O)N(C)C)ccc2C)n1	13.7
CC(=O)c1c(C)nc2sc3c(=N)n(N)cnc3c2c1-c1ccc(Cl)cc1	1.1
O=C(CN1C(=O)C2CC=CCC2C1=O)Nc1cc(C(F)(F)F)ccc1N1CCCC1 (stereo not shown)	-10.7
CCCC(=O)Nc1nnc(-c2ccco2)s1	2.66
CC(=O)Nc1ccc(NC(=O)C2CC(=O)N(c3cccc(Cl)c3)C2)cc1 (stereo not shown)	15
Cc1ccc(C)c(Nc2c([N+](=O)[O-])cc(C(=O)N3CC(=O)Nc4ccccc43)cc2[N+](=O)[O-])c1	16.9
CCCCN(C)CCCNC(=O)CCn1nc(-c2ccccc2)ccc1=O	-12
CC1CCN(C(=O)c2[nH]cnc2C(=O)Nc2nccs2)CC1	16.1
Cc1ccc(C)c(OCC(=O)Nc2nc3ccc([N+](=O)[O-])cc3s2)c1C	5.59
Cc1c(N2C(=O)SC(CC(=O)O)C2=O)c(=O)n(-c2ccccc2)n1C (stereo not shown)	10
CC(C)OC(=O)c1ccccc1C(=O)c1ccc(N)c([N+](=O)[O-])c1	8.42
